# From the supplement of paper PMC3656093
# ± gives the standard deviation of the averaged measurements. Whole data set: some 1,900 compounds, median “CD40L-induced NF-kB luciferase activity, plate-corrected, relative to DMSO (0) and IKK inhibitor VII (-100) controls” near 0.032, cut for the lowest 2% near -26. The list shows a part of the results.
# Tested on: BL2-NFkB-Luc
# Assay: CD40L-induced NF-kB luciferase activity, plate-corrected, relative to DMSO (0) and IKK inhibitor VII (-100) controls (% normalized activity); higher = more NF-kB reporter activity (less inhibition)
# Details: 9.4 µM; stimulus: tCD40L 64 ng/ml; 4.5 h
# Procedure: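 BL2 B cells with a stable NF-kB response-element luciferase reporter (BL2-NFkB-Luc), 384-well. Cells were pre-incubated with compound at 9.4 uM for 1 h at 37 C, then stimulated with 64 ng/ml trimerized CD40L for 4.5 h; luciferase was read with Steady-Glo. Signal was normalised per plate in Genedata (median DMSO neutral control = 0, median IKK inhibitor VII at 50 uM = -100) with Assay Median plate-pattern correction; duplicate plates.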
row,SMILES,CD40L-induced NF-kB luciferase activity
1,Cc1cccc2c(C(=O)O)cc(-c3cccnc3)nc12,-1.99 ± 8.5
2,O=C1CCCN1C(=O)CCC(=O)N1CCCC1=O,0.218 ± 1.1
3,COc1ccc(C2NC(=O)c3ccccc3O2)c(OC)c1OC (centres undefined),-3.71 ± 0.48
4,Nc1ccc(N=Nc2ccccc2)c(N)n1,51.91 ± 0.45
5,CCN(CC)C(=O)N1CCN(C)CC1,-0.022 ± 1.5
6,CC(C)COc1ccc(Cc2cnc(N)nc2N)cc1,1.68 ± 7.6
7,CC12CCC(C(=O)N(CCC#N)CCC#N)(CC1=O)C2(C)C (centres undefined),-5.66 ± 4.4
8,COc1ccc(C2c3c(n[nH]c3C)CC(C)(O)C2C(C)=O)cc1OC (centres undefined),2.22 ± 1.9
9,CCN(CCCc1ccccc1)CCCc1ccccc1,-5.18 ± 5.5
10,CC[C@]1(O)C[C@@H]2CN(CCc3c([nH]c4ccccc34)[C@@](C(=O)OC)(c3cc4c(cc3OC)N(C)[C@H]3[C@@](O)(C(=O)OC)[C@H](OC(C)=O)[C@]5(CC)C=CCN6CC[C@]43[C@@H]65)C2)C1,-54.7 ± 1.7
11,O=C(O)CCCCCCNC(=O)c1cncc(O)c1,-4.33 ± 1.9
12,CC1(C)C(=O)OC(C(=O)c2ccc(Cl)cc2)C(C)(C)C1=O (centres undefined),-1.2 ± 6.3
13,Nc1ccc2nc(Cc3ccccc3)[nH]c2c1,14.3 ± 4.9
14,CN(C)CCC(c1ccccc1)c1ccccn1 (centres undefined),-6.28 ± 5.6
15,N/C(=N\OC(=O)/C=C/c1ccccc1)c1ccc(Br)cc1,25.8 ± 4.5
16,CC(=O)Nc1ccccc1C(=O)C(=O)Nc1ccccc1,12.6 ± 1.1
17,Cc1ccccc1OCC(O)CN1CCN(C)CC1 (centres undefined),0.245 ± 1.5
18,CC(=O)OC(C)C[N+](C)(C)C (centres undefined),-11.8 ± 0.65
19,CCCCOc1ccc(CC(=O)NO)cc1,-7.75 ± 8.3
20,O=C(Cc1ccccc1)NNC(=O)Cc1ccccc1,1.84 ± 4.9
21,C=CCc1ccccc1OCC(O)CNC(C)C (centres undefined),1.14 ± 1.7
22,C=CC1=C(C(=O)O)N2C(=O)C(NC(=O)Cc3ccccc3)C2SC1 (centres undefined),1.93 ± 1.4
23,CCOCCCNCc1cn(-c2ccc(F)cc2F)nc1-c1ccccc1C,-1.93 ± 4.1
24,CCOC(=O)c1cccc(P(C)(C)=O)c1,-6.36 ± 1.2

row,SMILES,CD40L-induced NF-kB luciferase activity
1,COc1c(C=O)c(CCN(C)C(=O)c2ccc(F)cc2)cc2c1OCO2,-2.45 ± 4.7
2,CC1(C)Cc2ccccc2-c2nc(-c3ccccc3)oc(=O)c21,2.15 ± 0.84
3,CC(=O)Oc1c2occc2cc2ccc(=O)oc12,-0.883 ± 7.4
4,COc1cc(C2C(C(=O)c3ccc(C)o3)=C(O)C(=O)N2Cc2cccnc2)ccc1O (centres undefined),1.73 ± 4.7
5,O=c1nc2n(c3c1oc1ccccc13)Cc1ccccc1-2,79 ± 5.7
6,COCCCC/C(=N/OCCN)c1ccc(C(F)(F)F)cc1,-0.271 ± 6.8
7,COc1ccc(CCNC(=S)NC(=O)/C=C/c2ccc(C)cc2)cc1OC,-1.18 ± 1.3
8,COc1ccccc1C(CC(=O)Nc1ccccc1C)c1ccc(OC(C)C)cc1 (centres undefined),-11.4 ± 4.7
9,Cc1ccc2c(c1)C(O)(c1c(C)[nH]c3ccccc13)C(=O)N2 (centres undefined),3.92 ± 8.9
10,OCCC1CN(Cc2ccccc2-c2ccco2)CCN1C1CCCC1 (centres undefined),-1 ± 8.2
11,Clc1cc(-c2ccc(C=Nn3cnnc3)o2)ccc1Br,10.1 ± 5.1
12,Cc1c(OC(=O)CNC(=O)OC(C)(C)C)ccc2c3c(c(=O)oc12)CCC3,3.02 ± 3.5
13,C=CCC1(O)C(=O)N2C(=C1C(=O)N1CCOCC1)c1ccccc1CC2(C)C (centres undefined),-4.07 ± 3.1
14,O=C(/C=C/Sc1ccccc1)c1ccccc1,-1.27 ± 2.9
15,CCCCC[C@H](O)/C=C/[C@@H]1[C@@H](CCCCCCC(=O)O)[C@@H](O)C[C@H]1O,-29.5 ± 5.2
16,COC(=O)CN1CC(=O)N(c2ccccc2)C1=S,-1.87 ± 2.5
17,O=C(O)C1CSC(c2ccc3c(c2)OCO3)N1 (centres undefined),3.84 ± 4.1
18,COc1cccc(N2C(=O)CC(c3c[nH]c4ccccc34)C2=O)c1 (centres undefined),7.818 ± 0.02
19,Cn1c(=O)c2c(ncn2CC(O)CO)n(C)c1=O (centres undefined),-3.18 ± 3.4
20,CC12CCCCN1CCCc1c2[nH]c2ccccc12 (centres undefined),-1.68 ± 4.1
21,NC(=O)c1cccnc1,-3.39 ± 4
22,COc1ccccc1NC(=O)N1CCc2[nH]c3ccc(Cl)cc3c2C1,-0.849 ± 1.2
23,O=C1Nc2ccc3sc4ccccc4c3c2C1=O,61.6 ± 3.2
24,COc1ccc([C@H]2[C@H](C(=O)OC(C)(C)C)N3N=Cc4ccccc4C3C23C(=O)c2ccccc2C3=O)cc1OC (some centres undefined),-0.633 ± 2.7

row,SMILES,CD40L-induced NF-kB luciferase activity
1,NS(=O)(=O)c1cc2c(cc1C(F)(F)F)NC(Cc1ccccc1)NS2(=O)=O (centres undefined),-0.0595 ± 0.71
2,COc1ccc(NC(=O)N2CCCCC2c2cccnc2)cc1 (centres undefined),2.11 ± 0.12
3,CC(CN1c2ccccc2Sc2ccccc21)N(C)C (centres undefined),-0.524 ± 6.9
4,O=C(N/C(=C/C=C\c1ccccc1)C(=O)N1CCOCC1)c1ccc(Br)cc1,1.56 ± 5.1
5,Cc1cc(OCC(=O)C(C)(C)C)c2c(C)c(C)c(=O)oc2c1,2.09 ± 6.8
6,O=C(Cc1ccccc1[N+](=O)[O-])NCc1ccncc1,-1.22 ± 0.94
7,Cc1ccc(OCCSc2ncccn2)c(C)c1,63.4 ± 3.3
8,Cc1ccc(C(=O)O)cc1NC(=O)c1cccs1,-2.76 ± 1.8
9,CC1(C)CC(=O)c2cn3c(nc2C1)nc1ccccc13,2.43 ± 0.29
10,CCn1cc(C(=O)O)c(=O)c2cc(F)c(N3CCNCC3)cc21,-0.57 ± 0.86
11,O=C(NCCc1c[nH]c2ccccc12)OCCSS(=O)(=O)O,0.55 ± 1.4
12,CCOC(=O)c1ccc2[nH]c(C)c(CCC(C)=O)c(=O)c2c1,-1.2 ± 1.3
13,CN(CCc1cnn(C)c1)Cc1nc(CC2CC2)no1,-0.906 ± 0.31
14,Cc1ccc(N2C(=O)c3ccccc3C2=O)cc1C,8.27 ± 0.4
15,O=c1c(C(c2ccccc2)c2c(O)sc3ccccc3c2=O)c(O)sc2ccccc12,-1.14 ± 6.7
16,CCOC(=O)C1=C(C)NC(C)=C(C(=O)OC)C1c1cccc([N+](=O)[O-])c1 (centres undefined),-1.34 ± 4
17,COc1cc2ccc(=O)oc2c(O)c1OCC=C(C)C,17.9 ± 4.9
18,CCCCOc1ccc(OCCCN2CCOCC2)cc1,-4.49 ± 0.48
19,CC1CCc2cc(F)cc3c(=O)c(C(=O)O)cn1c23 (centres undefined),-0.144 ± 0.46
20,O=C(NCC1CCCCN1)c1cc(OCC(F)(F)F)ccc1OCC(F)(F)F (centres undefined),-3.67 ± 6
21,CC(=O)c1c[nH]c2ccc(C)cc2c1=O,13.2 ± 2.8
22,CC1(C)CC(CC(=O)Nc2nccs2)(c2ccccc2)CCO1 (centres undefined),-2.7 ± 1.3
23,COc1ccc(CNC(=O)N[C@H](C(=O)O)C(C)C)cc1OC,7.96 ± 1.4
24,COc1cccc(N2C(=O)[C@H]3C(C(=O)c4cnccn4)=NN[C@H]3C2=O)c1,-0.748 ± 1.9

row,SMILES,CD40L-induced NF-kB luciferase activity
1,Cc1ccc2c(c1)C1CN(C)CCC1N2S(=O)(=O)c1ccc(Oc2ccc([N+](=O)[O-])cc2)cc1 (centres undefined),2.33 ± 1.6
2,Cc1cccc(Nc2ncccc2C(=O)O)c1C,-3.873 ± 0.016
3,CS(=O)(=O)NCc1ccc(C(=O)NCc2ccccc2)cc1,7.75 ± 3.4
4,Cc1ccc2c(c1)OC(=O)CC2c1ccccc1 (centres undefined),-1.28 ± 5
5,C#CCOc1ccc2c(C)cc(=O)oc2c1,6.2 ± 3.8
6,O=C1CCCCCN1Cc1ccccc1,3.92 ± 5.3
7,Cc1ccsc1C=NNC(=O)c1ccc2c(c1)OCO2,50.38 ± 0.13
8,CCOc1cc2c3c(c1)C(C)=CC(C)(C)N3C(=O)C2=O,1.89 ± 0.12
9,N/C(=N\OC(=O)CCCOc1ccc(Cl)cc1Cl)c1ccncc1,66.8 ± 5.8
10,COc1ccc(C(=O)OCc2cc3cccc(C)c3[nH]c2=O)cc1,3.33 ± 4.1
11,CCn1c(N2CCN(CC(=O)c3c(C)n(C)c4ccc(OC)cc34)CC2)nc2c1c(=O)[nH]c(=O)n2C,2.93 ± 5.2
12,COc1ccc(CCN(C)Cc2nc(Cc3ccc(OC)c(OC)c3)no2)cc1OC,-7.97 ± 12
13,Cc1c(OCC(F)(F)F)ccnc1C[S+]([O-])c1nc2ccccc2[nH]1 (centres undefined),21 ± 2.6
14,Cc1ccc(SCC(=O)Nc2nccs2)cc1,48.8 ± 7.2
15,CCc1cc(=O)oc2cc3occ(-c4ccc(OC)c(F)c4)c3cc12,-4.14 ± 0.45
16,CC[n+]1c(C)sc2cc(C)ccc21,-3.64 ± 1.8
17,Cc1nc(N)nc2c1CCCC2,-1.37 ± 0.89
18,CSc1ccc(CN2CCN(CCC(C)C)C(CCO)C2)cc1 (centres undefined),-4.01 ± 5.8
19,COc1ccc2cc(C(=O)Nc3ccc(S(N)(=O)=O)cc3)sc(=O)c2c1OC,8.87 ± 1.6
20,COCCCN1C(=O)C(=O)/C(=C(/O)c2ccc3c(c2)CC(C)O3)C1c1cccnc1 (centres undefined),-5.92 ± 4.3
21,COc1ccccc1C1C(C#N)=C(N)Oc2c1oc(CO)cc2=O (centres undefined),-1.31 ± 0.27
22,COc1ccc(-c2coc3cc(O)cc(O)c3c2=O)cc1,65.8 ± 2.2
23,COc1ccc(C(=O)c2oc3ccc(Br)cc3c2NC(C)=O)cc1,-1.12 ± 1.1
24,O=C(CC1(O)C(=O)Nc2ccccc21)c1ccccc1O (centres undefined),1.73 ± 4.3

row,SMILES,CD40L-induced NF-kB luciferase activity
1,CN(C)CCC(c1ccc(Cl)cc1)c1ccccn1 (centres undefined),-1.1 ± 12
2,CC(C)C[C@H](NC(=O)NC(C)C)C(=O)O,4.06 ± 5.6
3,OCC(O)CN1CCN(c2ccccc2)CC1 (centres undefined),-0.715 ± 3.9
4,CCOC(=O)c1ccccc1NC(=O)c1ccc(F)cc1,4.78 ± 9.1
5,O=C(Cc1cccc2ccccc12)N1CC[C@@]2(O)CCCC[C@H]2C1,0.397 ± 3.4
6,CCOC(=O)C1C(=O)OC(C)(C)C1C(C)C(=O)c1ccc(C)cc1 (centres undefined),-7.11 ± 5.9
7,CC1(C)CC(=O)C(C(=O)CCCCC(=O)C2C(=O)CC(C)(C)CC2=O)C(=O)C1,-1.33 ± 2.3
8,S=C(NCCOCCOCCNC(=S)Nc1ccccc1)Nc1ccccc1,-3.25 ± 0.7
9,CCOC(=O)c1oc2cc(OCC(N)=O)ccc2c(=O)c1-c1ccc(OC)c(OC)c1,-1.7 ± 1.9
10,COc1ccc(/C=C\C(=O)c2c(O)ccc3c(C)cc(=O)oc23)cc1OC,-14 ± 3.3
11,CC(C)(C)OC(=O)N1CC(O)CC1C(=O)OCC(=O)c1ccc(Cl)cc1 (centres undefined),0.466 ± 2.2
12,Nc1[nH]c(=O)ncc1F,1.45 ± 4.4
13,C[C@]12CCC3C(CC=C4C[C@@H](O)CC[C@@]43C)C1CCC2[C@]1(C)CCC(=O)O1 (some centres undefined),0.402 ± 0.94
14,CN(C)CCOC(=O)C(c1ccccc1)C1(O)CCCC1 (centres undefined),-7.92 ± 3.4
15,CC(C)(C)NCC(O)COc1ccccc1C(=O)CCc1ccccc1 (centres undefined),0.277 ± 3.4
16,Cc1ccc2c(c1)c(C)cc(=O)n2CCC(=O)O,1.95 ± 3.4
17,O=C(NCCc1nc2ccccc2[nH]1)c1cccc(Br)c1,-2.89 ± 7.2
18,O=C(O)c1ccccc1Nc1cccc(C(F)(F)F)c1,-0.457 ± 2.1
19,CC(=O)Oc1ccc(C(c2ccc(OC(C)=O)cc2)c2ccccn2)cc1,-2.11 ± 0.43
20,N=c1nc(N2CCCCC2)cc(N)n1O,3.27 ± 5.3
21,COc1ccc(C2OC[C@H]3O[C@H](O)[C@H](NC(C)=O)[C@@H](O)[C@@H]3O2)cc1 (some centres undefined),-1.67 ± 0.076
22,O=[N+]([O-])c1ccc(O)c2ncccc12,-1.58 ± 2.2
23,COc1cccc(CC(=O)NCC2COc3ccccc3O2)c1OC (centres undefined),-4.07 ± 2
